Experimental data published in the RNAGym collection of RNA variant scans (doi:10.7554/elife.90254).
The source gives no read counts; variants with many changes may rest on few reads.

B1: LINE1-full (parent)
chain: UACGUAGGUGGUUUUCCCCUGAUAGUGCUAAGGGGGCCUGGAAGUUUGGACUGGGCAGAGCUCAACACAGCGUGGCAAAGUGGCUGUGGCUAGACUGCCUCUCUGGAUUCCUCGUCACUCAGCAGGGCAUCUCUGAGAGAAAUGCC

Variants of: B1
Assay: self-cleavage, relative activity (ratio to wild type); higher = more cleavage; in vitro, sequencing; the parent is a self-cleaving ribozyme

| Variant | self-cleavage |
| --- | --- |
| C3U A59U U132C A136U | 0.9 |
| C3U A67U U102A | 0.16 |
| C3U A69G U134C | 0 |
| C3U A69U U115C | 0.06 |
| C3U A77G U96A | 0.15 |
| C3U A79G A107G | 1.62 |
| C3U A117U A138G | 1.28 |
| C3U A124G A129G A138G | 1.08 |
| C3U C38U A107G U109C U115G U132C | 0 |
| C3U G41U A142C | 0.29 |
| C3U G54U A77G | 1 |
| C3U G55C G106A | 0.12 |
| C3U U5C U119C | 1.11 |
| C3U U9A U39A U46C U47C U109A A121G | 0.92 |
| C3U U12G U20A G122U | 1.13 |
| C3U U13A U15C U62C | 0.18 |
| C3U U13C G21A U109C | 0.41 |
| C3U U13C U45A A138G | 0.44 |
| C3U U13C U96A U130C | 0.19 |
| C3U U14C A24G A140G | 0.64 |
| C3U U14C A142G | 0.92 |
| C3U U14C C90U A140G | 0 |
| C3U U15C A59G A69G G75U | 0 |
| C3U U26A C66U U96G U115C A138G | 0 |

| Variant | self-cleavage |
| --- | --- |
| C3U U26C G33A | 0.69 |
| C3U U26C G89A G126U | 0.09 |
| C3U U29C G127A | 0.5 |
| C3U U39A A79U U104C A124G U134C | 1.72 |
| C3U U39C A42U A94G | 0.24 |
| C3U U45A U52A G53A A92G | 0 |
| C3U U46C U143A | 0.55 |
| C3U U52C C111U | 0.19 |
| C3U U52C U85C | 0.32 |
| C3U U62C C68U | 0.08 |
| C3U U81C U109A | 0.66 |
| C3U U96C U132C | 0.21 |
| C3U U100C A138G | 1.76 |
| G4A A6G U115C A141G | 2.63 |
| G4A A22G G53A U96A U109C C118U A142G | 0.02 |
| G4A A22G G55A U62C | 0.12 |
| G4A A22U U52C A64G A124G | 0.38 |
| G4A A24G U46C U73C U85C C99A | 0 |
| G4A A30U U47A U109C | 0 |
| G4A A30U U96C | 0.12 |
| G4A A31U C37G A64U | 0.41 |
| G4A A42G G49C G72A U81C | 1.25 |
| G4A A43G C103U | 0.83 |
| G4A A59G A117G | 0 |

| Variant | self-cleavage |
| --- | --- |
| G4A A77U A78G | 0.84 |
| G4A A78G A138G A142C | 0.71 |
| G4A A78U A92G | 0 |
| G4A A117G U134C | 0.77 |
| G4A C68U U73C | 0.26 |
| G4A G7A G40A U52C | 0.64 |
| G4A G7U U81C U102A | 0.56 |
| G4A G54A A64G U104A A141G | 0.15 |
| G4A G55C A121G U130C A141G | 0.29 |
| G4A G60A A94G G135A | 0.14 |
| G4A G70C U130G | 0.14 |
| G4A G82A A117G A124G G126C U134C | 1.84 |
| G4A U9A C76U | 1.3 |
| G4A U9A G93U | 0.05 |
| G4A U9C A94G | 0.34 |
| G4A U9C U14C G86U | 0.27 |
| G4A U12G G44A A69G U73C U87A A124G | 0 |
| G4A U13A U15C A59G A64U | 0.27 |
| G4A U13C U20C A129G | 1.13 |
| G4A U14C A79U | 0.66 |
| G4A U23A C84U U130C | 0.23 |
| G4A U23C A24G U134C | 1.12 |
| G4A U26A U134C | 1.35 |
| G4A U52G A69G U108C U143C | 0 |

| Variant | self-cleavage |
| --- | --- |
| G4A U62C U73C | 0 |
| G4A U81C U96C | 0 |
| G4A U85C U109C G126A | 0.17 |
| G4A U102A C103A | 1.78 |
| G4A U112A U130C A140G | 1.62 |
| G4C A42G U87C | 0 |
| G4C A57U U96C A107G U112C | 0 |
| G4C A78G U85C | 0 |
| G4C G34A A142G | 1.25 |
| G4C U23C U62C | 0.17 |
| G4C U62A A141G | 0.14 |
| G4U A24G A67G | 0.52 |
| G4U A57U A117U U130C | 0.13 |
| G4U U5C A24G U96C | 0.95 |
| G4U U5C A94U G125A | 0.46 |
| G4U U5C U14C U81A | 1.09 |
| G4U U13A U23C A92G A121U | 0.24 |
| G4U U13C G35A | 1.45 |
| G4U U14C U47C G89U A142G | 0.05 |
| G4U U20C A64G A65G A77U U130A | 0.11 |
| G4U U23C A117U | 1.61 |
| G4U U45C A50G A79G A138G | 2.63 |
| G4U U100A G144C | 0.73 |
| U5A A6G A57U | 0.28 |

| Variant | self-cleavage |
| --- | --- |
| U5A A6G U100A | 1.27 |
| U5A A22G A65G A77U | 0.14 |
| U5A A22G G60A U62C U85G A142G | 0.81 |
| U5A A22G U102C | 1.07 |
| U5A A30G G40C G83A U96A U100C A138U | 0.2 |
| U5A A30U A57G | 0.55 |
| U5A A57U U62A | 0.19 |
| U5A A65G A141G | 0.16 |
| U5A A67U A69G G83A G97A U134C A142G | 0.02 |
| U5A A77U A107G | 0.97 |
| U5A A79G A136G | 0.71 |
| U5A A92G A136G | 0 |
| U5A A94U U109A | 0.3 |
| U5A A124G G125U | 1.09 |
| U5A C37U G122C U134C | 1.43 |
| U5A C51A U62C U100C | 0.08 |
| U5A C51U G75C | 0.84 |
| U5A C63A U143C | 0.11 |
| U5A G32A G48A | 1.53 |
| U5A G32U U47C G48U A117G A129U | 0.36 |
| U5A G33A A77G | 1.56 |
| U5A G75A A78U U143C | 1.64 |
| U5A U9C U15A | 0 |
| U5A U12C A141G | 1.01 |

| Variant | self-cleavage |
| --- | --- |
| U5A U12C U15C A142G | 0.97 |
| U5A U12G U13C A24U G55A | 0.99 |
| U5A U12G U29C U134C | 2.1 |
| U5A U13A U20C U45G U85C U109A | 0.28 |
| U5A U13A U96C | 0 |
| U5A U13C A121U U143A | 0.99 |
| U5A U13C A124G A141G | 0.41 |
| U5A U13G G88U A117U A142G | 0.09 |
| U5A U14A A24U | 0.68 |
| U5A U14A A107G | 1.59 |
| U5A U14C A67U | 0.22 |
| U5A U14C A117C | 1.48 |
| U5A U14C G40U U45A U96A U109A U143G | 0.04 |
| U5A U14C U108A | 1.53 |
| U5A U15A A64U U132C | 0.33 |
| U5A U15G U20A G40A A64G | 0.11 |
| U5A U20A C61U | 0.04 |
| U5A U20C A59G A129G A141G | 0.34 |
| U5A U20C G80A | 1.17 |
| U5A U23C G89A A136G A138C | 0.1 |
| U5A U23G U39C U47A U108C | 1.1 |
| U5A U39A U85C | 0.07 |
| U5A U39C U87A C113U | 0.06 |
| U5A U45C A65U U143C C146A | 0.27 |

| Variant | self-cleavage |
| --- | --- |
| U5A U45C A92G U100C | 0 |
| U5A U45C C51U A59G U130C | 0.3 |
| U5A U45G U104A C128U U132C A138G | 0 |
| U5A U46C A67G | 0.34 |
| U5A U46C A67G U87A | 0.24 |
| U5A U46C C76U U85C | 0.58 |
| U5A U47C A59U U109C G126A U134C | 0.61 |
| U5A U47C A64U U96A A138G | 0.08 |
| U5A U47C A79G G89C A138G | 0.23 |
| U5A U47C U62C U102A | 0 |
| U5A U52A C63U U115A | 0.08 |
| U5A U52A U119C | 0.75 |
| U5A U73A A107G | 0.41 |
| U5A U73C U115A | 1.72 |
| U5A U85C C118U | 0.13 |
| U5A U85C U96C U115C | 0 |
| U5A U119A A136U | 0.7 |
| U5C A6C A124U | 0.8 |
| U5C A6G A79G | 0 |
| U5C A6G C18U U62C | 0 |
| U5C A6G U102A | 1.87 |
| U5C A22C C28U A69U U96A | 0.18 |
| U5C A22G A64G | 0 |
